From PubChem BioAssay AID445 (National Center for Advancing Translational Sciences (NCATS), 2006)
Among all 110,000 compounds or so, about 40 (0.04%) were called active. Inconclusive results, whose numbers are uncertain, are shown with a selection of clear calls. The call rests on the fitted dose curve; in most records, active means well fitted curve in the direction sought with a large enough effect in the signal ratio (not every such curve was filed as active); inconclusive means small, poorly fitted or top-dose-only effect, or a change in a side signal; inactive means flat fitted curve, though single readings scatter; the % refers to the signal ratio. Potencies beside an inconclusive call are fits to weak or partial responses and may not hold up.

experiment: IkB Signaling; conditions: ABC-DLBCL IkBa-CBG/CBR dual luciferase ratio (green luciferase fused to IkBa over red control in OCI-Ly3 lymphoma cells), 4 h; IkBa stabilization activation: at 57.1 µM (top of the series), scaled: untreated 0%, proteasome inhibitor 100% unless noted;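 on IkBa stabilization activation: 0% = basal untreated cells and 100% = reference inhibitor full response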
Summary of the method: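 In this assay, an IκBα–CBG68 fusion accumulates when IKK-driven degradation is blocked; native CBR normalizes for cell number. OCI-Ly3 cells were treated 4 h with compound and doxycycline, then green and red light read after Chroma-Glo addition.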
Potency means the concentration at half of the fitted maximal effect.

| Structure (SMILES) | IkBa stabilization activation | Potency |
| --- | --- | --- |
| O=C1CCc2cc(OCCCCc3nnnn3C3CCCCC3)ccc2N1 | inactive | – |
| CCOC(=O)C1CCCN(C(=O)c2cc(Nc3ccc(OC)c(OC)c3)nc3ccccc23)C1 (configuration not stated) | inconclusive: -0.00102% [signal inhibitor] | – |
| CCCn1c2ccccc2c2cnn(CC(=O)N3CCN(c4ccccc4)CC3)c(=O)c21 | inconclusive: 0.431% [signal inhibitor] | – |
| Cc1cccc(CSc2ncc(Cl)c(C(=O)Nc3nc4ccc(F)cc4s3)n2)c1 | inactive: 1.3% | – |
| CCOc1ccc(NC(=O)c2ncoc2-c2ccco2)cc1 | inconclusive: 1.86% [signal inhibitor] | – |
| O=C(Cn1c(=O)nc(-c2ccccc2)c2cc(Cl)ccc21)Nc1ccc(F)c(Cl)c1 | inconclusive: 5.53% [signal inhibitor] | – |
| N#Cc1cccc(-c2ccc3ncnc(NCc4ccccc4)c3c2)c1 | inactive: -1.57% [at 11.4 µM, scaled: untreated 0%, proteasome inhibitor 100%] | – |
| COC(=O)c1sc(NC(=O)COc2ccccc2OC)nc1C | inconclusive: 11.8% [signal inhibitor] | – |
| CCOC(=O)c1[nH]c2ccccc2c1NC(=O)c1ccc(Br)cc1 | inactive: -0.0714% | – |
| Cn1c(=O)c(-c2ccc(F)cc2)nc2cnc(Nc3ccccc3)nc21 | inactive: -0.0523% [at 11.4 µM, scaled: untreated 0%, proteasome inhibitor 100%] | – |
| COc1cccc(-c2nn(C)c3sc(C(=O)N4CCN(c5ccccn5)CC4)cc23)c1 | inconclusive: -1.3% [signal inhibitor] | – |
| CCn1c(=O)c(C(=O)NCc2ccc(OC)c(OC)c2)c(O)c2ccccc21 | inconclusive: 5.47% [signal inhibitor] | – |
| CSCCOC(=O)c1[nH]c2c(c1C)C(=O)CC(c1ccco1)C2 (configuration not stated) | inconclusive: 13.5% [signal activator] | – |
| CCOc1ccc(-c2nc3c(c(SCC(=O)N4CCCCC4)n2)Cc2cccc(OC)c2O3)cc1 | inconclusive: 3.68% [signal inhibitor] | – |
| O=C(NCc1ccc(Cl)cc1Cl)c1ccccn1 | inactive: 2.33% | – |
| CCCCN1C(=O)C(O)(CC(=O)c2ccc(C(C)(C)C)cc2)c2ccccc21 (configuration not stated) | inconclusive: 14.8% [signal inhibitor] | – |

| Structure (SMILES) | IkBa stabilization activation | Potency |
| --- | --- | --- |
| Cc1ccc(OCC(=O)Nc2ccc3nc(SCC(=O)N4CCOCC4)sc3c2)cc1 | inconclusive: 4.02% [signal inhibitor] | – |
| O=C(NC1CCCCC1)C(c1ccc(F)cc1)N(Cc1ccco1)C(=O)Cn1nnc2ccccc21 (configuration not stated) | inactive: 3.63% | – |
| Cn1c(CN2CCCCC2)nc2cc(NC(=O)c3ccccc3Cl)ccc21 | inconclusive: 6.74% [signal inhibitor] | – |
| Cc1cccc(OCc2nnc(SCC(=O)c3ccccc3)o2)c1 | inactive: 4.86% | – |
| COc1ccc2nc(NC(=O)c3nc(SC(C)C)ncc3Cl)sc2c1 | inactive: -0.473% | – |
| O=C(NC1CCCC1)c1cc(Nc2cccc(C(F)(F)F)c2)nc2ccccc12 | inconclusive: 9.62% [signal inhibitor] | – |
| CC(C)(C)C1CCc2onc(C(=O)Nc3cccnc3)c2C1 (configuration not stated) | inconclusive: -0.366% [signal inhibitor] | – |
| CCC(=O)N1CCc2cc(Br)cc(S(=O)(=O)CCC(=O)N3CCN(c4ccccc4F)CC3)c21 | inconclusive: 2.73% [signal inhibitor] | – |
| CCOC(=O)c1cccc(NS(=O)(=O)c2ccc(-c3cnc(C4CC4)o3)cc2)c1 | inconclusive: 9.05% [signal inhibitor] | – |
| O=C(C1CCN(S(=O)(=O)Cc2ccccc2)CC1)N1CCN(c2ccccc2)CC1 | inconclusive: -0.519% [signal inhibitor] | – |
| NC(=O)c1nc(Nc2ccccc2)sc1NC(=O)c1ccccc1Br | inconclusive: -0.813% [signal inhibitor] | – |
| Cc1cc2n(n1)C(c1ccccc1Cl)Nc1ccccc1-2 (configuration not stated) | inactive: -2.37% | – |
| COc1ccc(OC)c2[nH]c(=O)c(CCNC(=O)c3cc4ccccc4o3)cc12 | inconclusive: 3.88% [signal inhibitor] | – |
| COc1cc(OC)cc(-c2cc3nc(C)c(CCC(=O)NCc4ccc(Cl)cc4)c(C)n3n2)c1 | – | inconclusive: 20 µM [signal inhibitor] |
| Cc1cc2oc(=O)cc(C)c2c2occ(-c3ccc(Cl)cc3)c12 | inactive: -0.981% | – |
| Cc1cccc(N2CCN(C(=O)Cn3ncc4c5ccccc5n(C)c4c3=O)CC2)c1C | inconclusive: 0.622% [signal inhibitor] | – |
